{"source": "PubChem BioAssay AID1347073", "about": "(National Center for Advancing Translational Sciences (NCATS), 2019)", "note": "In all, about 45,000 compounds went through this assay and about 200 (0.44%) were called active. About 7% were inconclusive and are not listed. The call rests on the fitted dose curve; in most records, active means well fitted activation curve with a large enough effect; inconclusive means small, poorly fitted or top-dose-only effect; inactive means no such curve, though single readings can be large or run the other way. This is one part of the list.", "data": [{"test": "qHTS of TDP-43 Inhibitors: NCGC Sytravon Library Screen; further: 0% is about no effect; nearly all actives have a fitted effect of over 55% in size", "conditions": "yeast TDP-43 toxicity rescue, BacTiter-Glo growth, 24 h; series mostly up to 46.1 µM; growth rescue (activation): at the top concentration", "summary_of_the_method": "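TDP-43-expressing yeast, pregrown in raffinose, seeded at OD600 0.02 in galactose medium with compound for 24 hr at 30 deg C. Growth read by BacTiter-Glo luminescence, so rescue of toxicity appears as activation.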", "values": [{"smiles": "O=C(NC1CCCCC1)c1cc(N2C(=O)CCC2=O)ccc1Cl", "growth rescue (activation)": "inactive: -12%"}, {"smiles": "CCCCNC(=O)c1ccc2nc(CC)c(N(CCC(C)C)CCN(C)C)n2c1", "growth rescue (activation)": "inactive: 7.18%"}, {"smiles": "O=C(Nc1nncs1)c1ccc2c(c1)OCO2", "growth rescue (activation)": "inactive: -9.58%"}, {"smiles": "O=C(CSc1nc(-c2cccs2)cc(C(F)(F)F)n1)Nc1cc(OCC(F)(F)C(F)F)cc([N+](=O)[O-])c1", "growth rescue (activation)": "inactive: 5.12%"}, {"smiles": "CN(C(=O)CN1C(=O)NC2(CCc3ccccc32)C1=O)C1CCCCC1", "note": "(configuration not stated)", "growth rescue (activation)": "inactive: 11.5%"}, {"smiles": "OCCNc1nc(Nc2cccc(O)c2)nc2ccccc12", "growth rescue (activation)": "inactive: 9.19%"}, {"smiles": "CCc1nnc(NC(=O)c2oc3ccccc3c2COC(C)C)s1", "growth rescue (activation)": "inactive: 16.2%"}, {"smiles": "COC(=O)c1sccc1NC(=O)CSCCc1ccccn1", "growth rescue (activation)": "inactive: 3.3%"}, {"smiles": "COc1ccc(-c2cc(-c3ccc(O)cc3)nc(N)c2C#N)cc1OC", "growth rescue (activation)": "inactive: 3.18%"}, {"smiles": "COc1ccc(N(C(=O)Cn2nnc(-c3ccc(F)cc3)n2)C(C)C(=O)NC2CCCC2)cc1", "note": "(configuration not stated)", "growth rescue (activation)": "inactive: -19.5%"}, {"smiles": "Cc1ccsc1/C=N/NC(=O)CN1CCN(Cc2ccccc2)CC1", "growth rescue (activation)": "inactive: 9.41%"}, {"smiles": "CC(=O)Nc1ccc(S(=O)(=O)NC2(C(F)(F)F)C(=O)Nc3c2c(=O)[nH]c(=O)n3Cc2ccccc2)cc1", "note": "(configuration not stated)", "growth rescue (activation)": "inactive: -7.05%"}, {"smiles": "Cc1sc2ncnc(N3CCN(C(=O)c4ccco4)CC3)c2c1C", "growth rescue (activation)": "inactive: 27%"}, {"smiles": "CON/C=N/C(=S)Nc1ncc(C(F)(F)F)cc1Cl", "growth rescue (activation)": "inactive: -0.572%"}, {"smiles": "S=c1[nH]c(-c2ccccc2)cn1/N=C/c1ccncc1", "growth rescue (activation)": "inactive: -4.4%"}, {"smiles": "CCOC(=O)c1cc(-c2ccccc2)sc1NC(=O)CC", "growth rescue (activation)": "inactive: -1.95%"}, {"smiles": "Cc1cccc(-n2ccc(=O)c(C(=O)O)n2)c1", "growth rescue (activation)": "inactive: -15.3%"}, {"smiles": "Cc1ccc(-n2c(SCC(=O)N3Cc4ccccc4CC3C(=O)O)nnc2-c2cccnc2)c(C)c1", "note": "(configuration not stated)", "growth rescue (activation)": "inactive: 0.259%"}, {"smiles": "CC(=O)Nc1cc(-c2cccc(C(=O)N(C)C)c2)cn2c(-c3ccc(F)cc3)cnc12", "growth rescue (activation)": "inactive: -1.1%"}, {"smiles": "CCN(CC)C(=O)CC(c1ccc(F)cc1)c1ccc(OC)cc1", "note": "(configuration not stated)", "growth rescue (activation)": "inactive: 22.1%"}, {"smiles": "O=C(COC(=O)c1ccc2c(c1)OCCO2)Nc1cc(S(=O)(=O)N2CCOCC2)ccc1Cl", "growth rescue (activation)": "inactive: 5.33%"}, {"smiles": "CCCn1c(=O)[nH]c(=O)c2c1nc(-c1ccc(OC(F)F)c(OC)c1)n2CCOC", "growth rescue (activation)": "inactive: -7.28%"}, {"smiles": "Cc1cccc(Nc2c(-c3ccc(O)cc3)nc3ncccn23)c1", "growth rescue (activation)": "inactive: -2.62%"}, {"smiles": "O=C(Nc1cccnc1)c1cc(-c2ccc(Cl)cc2Cl)on1", "growth rescue (activation)": "inactive: 10.3%"}, {"smiles": "COc1ccccc1Nc1ccc(C(=O)O)cc1[N+](=O)[O-]", "growth rescue (activation)": "inactive: 3.26%"}, {"smiles": "CCOc1ccccc1C1C2CCCCC2(O)CCN1C(=O)c1cccs1", "note": "(configuration not stated)", "growth rescue (activation)": "inactive: 10.4%"}, {"smiles": "Cc1cc(C)c(S(=O)(=O)N2CCCC(C(=O)N3CCCC3)C2)c(C)c1", "note": "(configuration not stated)", "growth rescue (activation)": "inactive: 29.7%"}, {"smiles": "COCCN1C(=O)c2ccccc2C(C(=O)N2CCN(c3ccccn3)CC2)C1c1ccc(F)cc1", "note": "(configuration not stated)", "growth rescue (activation)": "inactive: 5.3%"}, {"smiles": "CCN(C(=O)CSc1nc(-c2cccs2)nc2ccccc12)C1CCS(=O)(=O)C1", "note": "(configuration not stated)", "growth rescue (activation)": "inactive: 7.95%"}, {"smiles": "COCc1c(C(=O)N/N=C\\c2cccs2)nnn1-c1nonc1N", "growth rescue (activation)": "inactive: 6.59%"}, {"smiles": "COc1ccc(CNC(=O)N2CCN(c3ccccc3OC)CC2)cc1", "growth rescue (activation)": "inactive: 16.8%"}, {"smiles": "Cc1ccc(S(=O)(=O)NC(=O)C2(C)CCN2C(=O)Cc2ccc(Cl)cc2Cl)nc1", "note": "(configuration not stated)", "growth rescue (activation)": "inactive: 14.5%"}, {"smiles": "O=c1[nH]c(C2CCN(S(=O)(=O)c3ccc([N+](=O)[O-])cc3)CC2)nc2c1nnn2Cc1ccccc1", "growth rescue (activation)": "inactive: 19.6%"}, {"smiles": "O=C(O)Cc1ccc(NC(=O)c2cccc(NC(=O)c3ccco3)c2)cc1", "growth rescue (activation)": "inactive: -5.05%"}, {"smiles": "Cc1oc(-c2cccc(C(F)(F)F)c2)nc1CN1CCOCC1", "growth rescue (activation)": "inactive: 15.4%"}, {"smiles": "O=S(=O)(NCCN1CCOCC1)c1ccc(Oc2ccccc2Cl)cc1", "growth rescue (activation)": "inactive: -4.87%"}, {"smiles": "COc1cccc(N2CCN(C(=O)CCNS(=O)(=O)c3ccc4c(c3)c(=O)n(C)c(=O)n4C)CC2)c1", "growth rescue (activation)": "inactive: 3.12%"}, {"smiles": "Cc1ccc(-c2cnc(C(O)c3ccc(Cl)cc3C)[nH]2)cc1", "note": "(configuration not stated)", "growth rescue (activation)": "inactive: 11.8%"}, {"smiles": "COCCn1c(SCC#N)nnc1-c1ccc([N+](=O)[O-])cc1", "growth rescue (activation)": "inactive: 11.9%"}, {"smiles": "CC(=O)N(Cc1ccccc1)c1ccccc1C(=O)O", "growth rescue (activation)": "inactive: 10.9%"}, {"smiles": "Cc1cccc(C)c1NC(=O)CSc1nnc(C2CCCCC2)o1", "growth rescue (activation)": "inactive: 36.9%"}, {"smiles": "O=C(O)CCC(=O)N1N=C(c2ccccc2)CC1c1cccs1", "note": "(configuration not stated)", "growth rescue (activation)": "inactive: -12%"}, {"smiles": "Cc1ccc(CNC(=O)C2CCC(CNS(=O)(=O)c3cccs3)CC2)cc1", "note": "(configuration not stated)", "growth rescue (activation)": "inactive: 3.08%"}, {"smiles": "COc1ccccc1CNC(=O)CN1C(=O)c2cccnc2Oc2ccccc21", "growth rescue (activation)": "inactive: 11.9%"}, {"smiles": "CCOC(=O)C1(C)CCCN(C(=O)c2ccc(F)c(Cl)c2)C1", "note": "(configuration not stated)", "growth rescue (activation)": "inactive: 6.28%"}, {"smiles": "COc1ccccc1NC(=O)CC(=O)Nc1ccccc1OC", "growth rescue (activation)": "inactive: 1.48%"}, {"smiles": "COc1ccc(NC(=O)N(Cc2cc3ccc(OC)cc3[nH]c2=O)CC2CCCO2)cc1", "note": "(configuration not stated)", "growth rescue (activation)": "inactive: -9.33%"}, {"smiles": "CCn1cc(C(=O)O)c(=O)c2cc(F)c(N3CCN(S(=O)(=O)c4ccc(NC(C)=O)cc4)CC3)cc21", "growth rescue (activation)": "inactive: 5.25%"}, {"smiles": "C=CCOc1ccc(/C=C2/C(=O)ON=C2C)cc1OC", "growth rescue (activation)": "inactive: 25.8%"}, {"smiles": "CCOc1ccc(CNC(=O)C2CCN(C(=O)c3sccc3-n3cccc3)CC2)cc1", "growth rescue (activation)": "inactive: 11.4%"}, {"smiles": "Cc1cccc(/C(N)=N/OC(=O)c2ccoc2C)c1", "growth rescue (activation)": "inactive: -14%"}, {"smiles": "CN(C)c1ccc(/C=C(\\C#N)c2ccccn2)cc1", "growth rescue (activation)": "inactive: -19.7%"}, {"smiles": "O=C(CSCc1ccccc1)Nc1ccccc1C(=O)Nc1ccc(C(=O)O)cc1", "growth rescue (activation)": "inactive: 1.2%"}, {"smiles": "N#CC1=C(N)Oc2ccc3ccccc3c2C1c1cccnc1", "note": "(configuration not stated)", "growth rescue (activation)": "inactive: 3.92%"}, {"smiles": "COc1ccc(-c2nnc(SC)o2)c(OC)c1", "growth rescue (activation)": "inactive: 11.5%"}, {"smiles": "CCOC(=O)c1c(CSc2ccc(C)cc2)oc2ccc(O)cc12", "growth rescue (activation)": "inactive: -89.7%"}, {"smiles": "OCCNCc1cc(Br)ccc1OCc1ccccc1Cl", "growth rescue (activation)": "inactive: 19.5%"}, {"smiles": "COC(=O)C(NS(=O)(=O)c1ccc(N2CCCC2=O)cc1)c1ccccc1", "note": "(configuration not stated)", "growth rescue (activation)": "inactive: 12.7%"}, {"smiles": "O=C(/C=C\\c1cn(-c2ccccc2)nc1-c1ccccc1)Nc1nccs1", "growth rescue (activation)": "inactive: 6.87%"}, {"smiles": "COc1cccc(N(C(=O)CS(=O)CC(=O)Nc2ccc(F)cc2)C(C(=O)NC2CCCCC2)c2cccs2)c1", "note": "(configuration not stated)", "growth rescue (activation)": "inactive: 12.7%"}, {"smiles": "CCn1c(COc2cccc(OC)c2)nnc1SCC(=O)NC1CCCC1", "growth rescue (activation)": "inactive: -10.6%"}, {"smiles": "COc1ccc(OC)c(C(=O)CSc2nnc(-c3cccnc3)n2C)c1", "growth rescue (activation)": "inactive: -1.69%"}, {"smiles": "O=C(COC(=O)/C=C/c1nc2ccccc2s1)Nc1cccc2ccccc12", "growth rescue (activation)": "inactive: -2.33%"}, {"smiles": "Cc1ccccc1OCC(=O)N(CC(C)C)c1c(N)n(CC(C)C)c(=O)[nH]c1=O", "growth rescue (activation)": "inactive: 1.48%"}, {"smiles": "O=C(COC(=O)c1cc(S(=O)(=O)N2CCOCC2)ccc1Cl)Nc1ccccc1Cl", "growth rescue (activation)": "inactive: 51%"}, {"smiles": "CCC(C)c1ccccc1NC(=O)c1[nH]c(C)c(C(C)=O)c1C", "note": "(configuration not stated)", "growth rescue (activation)": "inactive: -5.55%"}, {"smiles": "O=C(O)CNC(=S)N(Cc1cccs1)C1CCCCC1", "growth rescue (activation)": "inactive: 1.3%"}]}]}
